Measurements as given in a compilation of properties of binary mixtures (doi:10.1016/j.molliq.2021.116094).
The densities may have been worked out from excess volumes.

Assay: xn = mol fraction of the nth substance listed
Conditions: 101 kPa

COCCCC[n+]1ccn(C)c1.NCC(=O)[O-] + O
mass density [kg/m3]
Conditions	288.15 K	293.15 K	298.15 K	303.15 K	308.15 K	313.15 K	318.15 K	323.15 K	328.15 K
x1 = 0.8079	1167.2	1164.2	1160.8	1157.1	1153.4	–	1146	1142.4	1138.5
x1 = 0.8371	–	–	1161	1157.3	–	1150	1146.2	1142.6	1138.8
x1 = 0.8684	–	1164.6	1161.2	1157.5	1153.8	1150.2	1146.4	–	1139.1
x1 = 0.9018	1168	1164.8	1161.4	1157.8	1154.1	1150.4	1146.7	–	1139.3
x1 = 0.9376	–	1165.1	1161.7	1158	–	1150.7	–	–	1139.6

CC(N)C(=O)[O-].COCCCCn1cc[n+](C)c1 + O
mass density [kg/m3]
Conditions	288.15 K	293.15 K	298.15 K	303.15 K	308.15 K	313.15 K	318.15 K	323.15 K	328.15 K
x1 = 0.801	1161.7	1158.1	–	1150.8	1147.1	1143.4	1139.7	–	1132.3
x1 = 0.8294	1161.9	1158.3	1154.6	1151	–	1143.6	1139.9	1136.3	–
x1 = 0.8618	1162.1	1158.5	1154.8	1151.2	1147.5	1143.8	1140.1	1136.5	–
x1 = 0.9002	1162.3	1158.7	1155	–	1147.7	–	–	1136.7	1133
x1 = 0.9343	1162.4	1158.8	–	1151.5	1147.8	1144.2	1140.5	–	1133.2
